# From the supplement of paper PMC12645437, “Orthogonal IMiD-Degron Pairs Induce Selective Protein Degradation in Cells” (ACS Chemical Biology, 2025)
# The list shows a part of the results.
# B1: Q9UKT9 (peptide)
# chain: FICEVCGAYFTQKGNLLRHIKL
# B2: Q9UKT9 (peptide)
# chain: FDCPICGRIFTQKGNLLRHIKL
# B3: Q9UKT9 (peptide)
# chain: FRCNVCGAFFTQKGNLLRHIKL
# B4: Q9UKT9 (peptide)
# chain: FVCEICGHGFTQKGNLLRHIKL
# B5: Q9UKT9 (peptide)
# chain: FTCNQCGRYFTQKGNLLRHIKL
# B6: Q9UKT9 (peptide)
# chain: FVCEICGAIFTQKGNLLRHIKL
# B7: Q9UKT9 (peptide)
# chain: FYCEQCGAHFTQKGNLLRHIKL
# B8: Q9UKT9 (peptide)
# chain: FDCPQCGAKFTQKGNLLRHIKL
# B9: Q9UKT9 (peptide)
# chain: FQCNICGAIFTQKGNLLRHIKL
# B10: Q9UKT9 (peptide)
# chain: LQCEICGFDCTQKGNLLRHIKL
# B11: Q9UKT9 (peptide)
# chain: FICNICGAYFTQKGNLLRHIKL
# B12: Q9UKT9 (peptide)
# chain: FICEICGHEFTQKGNLLRHIKL
# B13: Q9UKT9 (peptide)
# chain: FNCDVCGATFTQKGNLLRHIKL
# B14: Q9UKT9 (peptide)
# chain: FTCNQCGAQFTQKGNLLRHIKL
# B15: Q9UKT9 (peptide)
# chain: FACPICGHTFTQKGNLLRHIKL
# B16: Q9UKT9 (peptide)
# chain: FICNQCGHAFTQKGNLLRHIKL
# B17: Q9UKT9 (peptide)
# chain: LWCPICGFQCTQKGNLLRHIKL
# B18: Q9UKT9 (peptide)
# chain: FGCNICGAQFTQKGNLLRHIKL
# B19: Q9UKT9 (peptide)
# chain: FQCEVCGAFFTQKGNLLRHIKL
# B20: Q9UKT9 (peptide)
# chain: LLCNQCGFRCTQKGNLLRHIKL
# B21: Q9UKT9 (peptide)
# chain: FQCEICGRLFTQKGNLLRHIKL
# B22: Q9UKT9 (peptide)
# chain: FACEICGHQFTQKGNLLRHIKL
# B23: Q9UKT9 (peptide)
# chain: FYCPVCGARFTQKGNLLRHIKL
# B24: Q9UKT9 (peptide)
# chain: FSCPQCGAEFTQKGNLLRHIKL
# B25: Q9UKT9 (peptide)
# chain: LYCEICGFPCTQKGNLLRHIKL
# B26: Q9UKT9 (peptide)
# chain: FACDVCGAIFTQKGNLLRHIKL
# B27: Q9UKT9 (peptide)
# chain: FKCDQCGAEFTQKGNLLRHIKL
# B28: Q9UKT9 (peptide)
# chain: FDCNQCGAGFTQKGNLLRHIKL
# B29: Q9UKT9 (peptide)
# chain: FVCEICGAVFTQKGNLLRHIKL
# B30: Q9UKT9 (peptide)
# chain: FYCPICGAMFTQKGNLLRHIKL
# B31: Q9UKT9 (peptide)
# chain: FHCPQCGAMFTQKGNLLRHIKL
# B32: Q9UKT9 (peptide)
# chain: FNCPICGHGFTQKGNLLRHIKL
# Target: no compound (DMSO)
# Assay: log2 fold change of degron read counts, EGFP-low vs EGFP+ sorted cells; higher = lower degron-EGFP level without compound (poor expression or instability)
# Conditions: compound: DMSO control; 18 h
# 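Note: jurkat cells carrying a lentiviral library of mutant zinc finger degrons fused to EGFP plus mCherry, mCherry+ cells FACS sorted, degron abundance counted by next-generation sequencing.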
row,Sequence,log2 fold change of degron read counts
1,B1,-0.834
2,B2,-0.169
3,B3,0.521
4,B4,-1.67
5,B5,-0.0487
6,B6,-0.107
7,B7,-0.524
8,B8,-2.69
9,B9,-0.00915
10,B10,-0.5
11,B11,0.392
12,B12,-2.52
13,B13,-2.06
14,B14,-1.71
15,B15,-0.361
16,B16,-1.82

row,Sequence,log2 fold change of degron read counts
1,B17,1.95
2,B18,-0.35
3,B19,-0.527
4,B20,0.994
5,B21,-1.6
6,B22,-1.76
7,B23,-1.02
8,B24,-2.83
9,B25,0.859
10,B26,-0.0726
11,B27,-2.36
12,B28,0.46
13,B29,-1.03
14,B30,0.186
15,B31,-0.336
16,B32,-0.492
